pIC50: −log10 of the molar value. Some entries share one result that the patent states for a list of compounds.
Biological target: MEK enzyme
Assay: MEK kinase inhibition (KinaseGlo luminescence)
Format: biochemical
Details: ERK substrate, 1% DMSO, read-out: MEK kinase inhibition activity of the compounds (IC50)

Row | SMILES | pIC50
1 | Cc1c(=O)n(C)c(Nc2ccc(I)cc2F)c2c(=O)n(C3CC3)c(=O)n(-c3cccc(CC(=O)NC4COC4)c3)c12 [Compound 31, 2-(3-(3-cyclopropyl-5-((2-fluoro-4-iodophenyl)amino)-6,8-dimethyl-2,4,7-trioxo-3,4,6,7-tetrahydropyrido[4,3-d]pyrimidin-1(2H)-yl)phenyl)-N-(oxetan-3-yl)acetamide] | 6.30 to 9.00
2 | Cc1c(=O)n(C)c(Nc2ccc(I)cc2F)c2c(=O)n(C)c(=O)n(-c3cccc(C(=O)NC4COC4)c3)c12 [Compound 49, 3-(5-((2-fluoro-4-iodophenyl)amino)-3,6,8-trimethyl-2,4,7-trioxo-3,4,6,7-tetra hydropyrido[4,3-d]pyrimidin-1(2H)-yl)-N-(oxetan-3-yl)benzamide] | 5.82 to 6.30
3 | Cc1c(=O)n(C)c(Nc2ccc(I)cc2F)c2c(=O)[nH]c(=O)n(-c3cccc(C(=O)N4CCS(=O)(=O)CC4)c3)c12 [Compound 8, 1-(3-(1,1-dioxidothiomorpholine-4-carbonyl)phenyl)-5-((2-fluoro-4-iodophenyl)amino)-6,8-dimethylpyrido[4,3-d]pyrimidine-2,4,7(1H,3H,6H)-trione] | 6.30 to 9.00
4 | Cc1c(=O)n(C)c(Nc2ccc(I)cc2F)c2c(=O)n(C)c(=O)n(-c3cccc(C4(C(N)=O)CC4)c3)c12 [Compound 79, 1-(3-(5-((2-fluoro-4-iodophenyl)amino)-3,6,8-trimethyl-2,4,7-trioxo-3,4,6,7-tetrahydropyrido[4,3-d]pyrimidin-1(2H)-yl)phenyl)cyclopropanecarboxamide] | 6.30 to 9.00
